In PubChem BioAssay AID1508624 (National Center for Advancing Translational Sciences (NCATS), 2021):
About 120 (0.25%) of roughly 48,000 compounds were called active. Another 4% or so got no clear call; they are omitted. Calls come from the whole dose curve; as a rule, active = well fitted activation curve with a large enough effect; inconclusive = small, poorly fitted or top-dose-only effect, or another doubt; inactive = no such curve, though single readings can be large or run the other way. The list shows a part of the results.

Assay: Primary qHTS for Identification of Small Molecule Activators of Huntingtin-Antisense Promoter Activity; note: nearly all actives have a fitted effect of over 55% in size
Settings: HEK293 HTT-AS promoter firefly luciferase reporter, 24 h; series mostly up to 57.5 µM; activity change, positive = activation: at the top concentration
Method in brief: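 HEK293 Fluc reporter, 2,500 cells/well, 24 h pre-culture; cpds up to 57.5 uM final, 24 h 37 degrees C; Dual-Glo, 10 min RT; normalized vehicle = 0%, zero RLU = -100%.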

Activity change, positive = activation, inactive:
Cc1ccc(-c2onc(C)c2C)cc1S(=O)(=O)N1CCC(C)CC1 -48.7%
Cc1ccc(Cn2c(C(=O)Nc3ccc(Cl)cc3)cc3sccc32)cc1 -0.383%
COc1ccc(Cl)cc1NC(=O)c1ccc(CN2C(=O)CCn3nc(C)cc32)cc1 -28.7%
COc1cc(Cl)c(C)cc1NC(=O)CNC(=O)Cn1ccc2ccccc2c1=O -11.8%
CCOc1ccc(OCCOCCn2c(-c3ccc(Cl)cc3)nc3ccccc3c2=O)cc1 -14.7%
Cc1cccc(-c2nc(SCCCOc3cc(C)c(Cl)c(C)c3)n3[nH]c(=O)cc3n2)c1 7.1%
CSc1ncc(C(=O)NCc2ccc(F)cc2)c(-c2ccccc2)n1 -16.9%
CCCCN(CC)CCCNC(=O)Cn1nc(CC)n2c(cc3sccc32)c1=O -6.13%
COc1ccc2c(c1)c1c(c(=O)n(CCc3ccccc3)c(=O)n1Cc1cccc(C)c1)n2C -10.4%
CCOC(=O)c1ccc(NC(=O)CCCn2nc(C)c3sc4ccccc4c3c2=O)cc1 -24.3%
CCCc1oc2ccc(NS(=O)(=O)c3ccc(OCC)cc3)cc2c1C(=O)OCC -38.7%
COC(=O)CC(=O)CSc1nc2cc(C(=O)NC(C)C)ccc2c(=O)n1CCc1ccccc1 -5.41%
Cc1ccc(C(=O)OC2=C(C(=O)c3ccccc3)N(C)S(=O)(=O)c3ccccc32)cc1 -40.9%
O=C(Cc1ccc(-c2ccccc2)cc1)NCCS(=O)(=O)N1CCN(c2cccc(Cl)c2)CC1 -4.96%
CC(=O)N1CCC2(CC1)OC(=O)C(C)=C2C(=O)NCc1ccccc1Cl 24.4%
CC(=O)OC1=C(C(C)=O)N(Cc2ccccc2)S(=O)(=O)c2ccccc21 -12.4%
Cc1cc(NC(=O)c2ccc(F)cc2)ccc1-c1cc2ccccc2oc1=O 14.3% [at 11.5 µM, percent change from vehicle, -100% = no light]
Cc1ccc(Cl)cc1NC(=O)c1csnn1 3.61%
CC1CCN(C(=O)CCS(=O)(=O)c2cc3c(cc2Cl)NC(=O)CO3)CC1 -15.7%
CCOC(=O)c1nnn(CC(=O)NC(=O)Nc2ccccc2F)c1C(=O)OCC -15.8%
CCCCSc1nnc2[nH]c(=O)cc(C)n12 -0.456%
O=C(c1cc(-c2ccc(Br)cc2)n[nH]1)N1CCN(S(=O)(=O)c2ccc(Br)s2)CC1 -31.1%
CCOc1ccc(Nc2nc(N)c(C(=O)c3ccccc3Cl)s2)cc1 -24.9%
CCN(CC)S(=O)(=O)c1ccc(NC(=O)c2nn(C)c3c2CSc2ccccc2-3)cc1 -25.9%
Cc1cccc(CC(=O)NC2CC(=O)N(c3ccc4c(c3)OCCO4)C2)c1 (stereo unspecified) -0.511%
Fc1ccc(Nc2nc(SCc3cccc(F)c3)nc3ccccc23)cc1 -34.9%
Cc1ccccc1CSc1ncc(Cl)c(C(=O)NCc2ccccc2)n1 -17.8%
CCOC(=O)c1ccc(N2C(=O)c3[nH]nc(-c4ccc(C)cc4)c3C2c2ccc(O)cc2)cc1 (stereo unspecified) -65.3%
CCC(=O)N1CCc2cc(Br)cc(S(=O)(=O)CCC(=O)Nc3ccc(CC)cc3)c21 11.3%
COc1cc2c(cc1OC)C(COc1ccc3c(C)cc(=O)oc3c1)N(C(=O)c1ccc(C)cc1)CC2 (stereo unspecified) -17.8%
Cc1ccc(C)c(NC(=O)CSc2nc(=O)n(CCN3CCOCC3)c3c2CCC3)c1 -4.31%
COc1ccc(C2c3c(n(C)c4ccccc34)C(=O)N2CC(=O)Nc2c(C)cc(C)cc2C)cc1 (stereo unspecified) -14.6%
CCC(=O)N1c2ccccc2CC1C(=O)NCCCN1CCN(c2cccc(Cl)c2)CC1 (stereo unspecified) -6.99%
CC(C)Cn1cc(NC(=O)NCc2ccc(Cl)cc2)c2ccccc2c1=O -10.1%
CCOc1ccccc1CNC(=O)C(CC)n1nc(C)c2c(C)n(-c3ccccc3)nc2c1=O (stereo unspecified) -20.3%
Cc1c(C(=O)NCc2ccccc2Cl)sc2nc3n(c(=O)c12)CCCC3 15.3%
COc1ccc(Br)c2c1-c1nc(NC(=O)c3ccc(F)cc3)sc1C2 -2.18%
CCOC(=O)N1CCC(NC(=O)c2ccc3c(c2)N(Cc2ccccc2)C(=O)c2ccccc2S3(=O)=O)CC1 -29.7%
Cc1ccc2c(c1)C(=O)OC(C(=O)Nc1ccc(C(=O)O)cc1)C2 (stereo unspecified) 0.793%
O=C(Nc1ccc(Cl)cc1)c1ccc2oc(=O)n(Cc3ccccc3)c2c1 -16.2%
COc1ccc(C(=O)CN2CCN(S(=O)(=O)c3ccc(F)cc3)CC2)cc1 -16.4%
COCCCNc1nc2c(c(=O)n(Cc3ccccc3)c(=O)n2C)n1C 0.322%
Cc1ccc(Sc2ccc(N3CCCC(C(=O)Nc4ccc(Br)cc4)C3)nn2)cc1 (stereo unspecified) -24.8%
Cc1c(C)n(Cc2ccccc2)c2ccc(C(=O)N3CCN(c4ccccc4F)CC3)cc12 -2.09%
Cc1nc2ccn(Cc3cccnc3)c(=O)c2cc1C(=O)N1CCN(c2ccccc2F)CC1 -4%
O=C(NCCc1ccc(Cl)cc1)c1cc(-c2ccccc2)n[nH]1 -14.4%
COc1ccc(SCc2cc(=O)c3ccc(C)c(C)c3[nH]2)cc1 -13.8%
CCOc1ccc(-c2nnc(SCC(=O)NC3CCCCC3)nc2-c2ccc(OCC)cc2)cc1 1.39%
Cc1ccc(C)c(N2CCN(c3nc4ccccc4c(=O)n3-c3ccc(Cl)cc3)CC2)c1 -22.3%
COc1ccc2c(c1)Cc1sc(NC(=O)c3ccccc3C)nc1-2 17%
COc1ccc(NC(=O)Cn2cnc3ccc(S(=O)(=O)N4CCC(C)CC4)cc3c2=O)c(OC)c1 -29.2%
COc1cccc(CNC(=O)c2ccc(-c3nc(CS(=O)c4ccccc4)c(C)o3)cc2)c1 (stereo unspecified) -30.4%
COc1cc2nc(N(C)CCCNC(=O)C3CCCO3)nc(N)c2cc1OC (stereo unspecified)
COc1ccc(C2=C(C)C(N3CCC(C(=O)NCc4ccc(C)o4)CC3)=NS2(=O)=O)cc1 -6.31%
CCN(CCCNC(=O)CSc1cc(=O)n(CC)c2ccccc12)c1ccccc1 0%
Clc1ccc(Cn2c(CN3CCCC3)nc3ccccc32)cc1 -10.3%
Oc1ccc2ccccc2c1SSc1c(O)ccc2ccccc12 -22%
O=C(NC1CCCC1)c1ccc2c(=O)n(Cc3ccccc3)c(SCc3ccc([N+](=O)[O-])cc3)nc2c1 -2.67%
CCc1ccc(NC(=O)Nc2cn(C)c(=O)c3ccccc23)cc1 -32.7%
CCc1ccc(CNC(=O)Cn2ccc3cc(S(=O)(=O)N4CCCCCC4)ccc32)cc1 -21%
CCc1ccc(-n2nc(CO)c(C(=O)NC(C)c3ccc(Cl)cc3)n2)cc1 (stereo unspecified) -3.9%
COc1cccc(CNC(=O)CN2C(=O)CCc3cc(S(=O)(=O)N4CCOCC4)ccc32)c1 -17%
COc1ccc(OC)c2sc(N(Cc3cccnc3)C(C)=O)nc12 -2.7%
CCOC(=O)N1CCN(Cc2nc3cc(NC(=O)CC)ccc3n2C(C)C)CC1 -41.3%
COC(=O)c1nnn(-c2cccc(C)c2)c1N 12.5%
COc1ccc(-n2c(SCc3nc(-c4ccc(C)cc4)no3)nnc2-c2ccccc2)cc1 -7.6%
CC(C)Oc1ccc(CNC(=O)CN2C(=O)CCn3nc(-c4cn(C)c5ccccc45)cc32)cc1 -16.8%
CCOC(=O)c1ccc(NC(=O)CN(Cc2ccc(C)cc2)S(=O)(=O)c2ccc(C)cc2)cc1 -6.42%
CC1CN(C(=O)Nc2ccc(C(=O)NCc3ccccc3F)cc2)c2ccccc2S1 (stereo unspecified) -25.8%
COC(=O)c1ccc(NC(=O)CSc2n[nH]c(-c3ccccc3)n2)cc1 -12.2%
COc1ccc(OC)c(-c2nnc3ccc(-c4ccc(OC)c(O[C@@H]5CCOC5)c4)nn23)c1 -31.3%
Fc1ccccc1N1CCN(Cc2nnc(-c3ccc4c(c3)OCO4)o2)CC1 -8.6%
Cc1ccc(C)c(N2C(=O)N(Cc3ccccc3C)c3ccccc3S2(=O)=O)c1 -43.2%
Cc1ccccc1OCC(=O)Nc1ccc2oc(-c3ccc(F)cc3)nc2c1 -2.36%
O=C(Nc1nc2c(Cl)cccc2s1)c1ccc(S(=O)(=O)N2CCc3ccccc32)cc1 -41.7%
CCN(CC)c1ccc(NC(=O)Cn2ncc3c(C)n(Cc4ccccc4F)c(C)c3c2=O)c(C)c1 -3.56%
Cc1ccc(NC(=O)Cc2ccc(NC(=O)N3CCCCc4ccccc43)cc2)cc1Cl -6.91%
CCOC(=O)c1ccc(N2C(=O)c3n[nH]c(-c4ccco4)c3C2c2ccc(OC)cc2OC)cc1 (stereo unspecified) -60.4%
COc1cccc(-c2nc(S(=O)(=O)c3ccc(C)cc3)c(N3CCCCCC3)o2)c1 -21.3%
Cc1cccc(C)c1-n1ncc(C(=O)NCCCN2CCCCC2)c1C1CCN(C(=O)OC(C)(C)C)CC1 -21%
CCCCOc1ccc(C(=O)NCC(c2ccc(Cl)cc2)N2CCOCC2)cc1 (stereo unspecified) 8.06%
COc1ccc(-c2nc(-c3cc4cc(Br)ccc4oc3=O)cs2)cc1 1.82%
COc1ccccc1N1CCN(c2nc3ccccc3n3cnnc23)CC1 15.7%
O=C(CCn1nc(-c2ccccc2)c2ccccc2c1=O)Nc1ccccc1 -15.2%
Cc1cccc(C)c1NC(=O)Nc1csc2c1CCCC2 -18.3%
Cc1ccc2nc(N(CCCN(C)C)C(=O)c3ccco3)sc2c1 14.4%
Cc1ccc(-n2nc(CO)c(C(=O)NCc3ccccn3)n2)cc1 -8.15%
CC(=O)Nc1ccc(NC(=O)c2cc(=O)c3ccccc3o2)cc1 22.2%
COc1ccc(OCc2ccc(-c3nc(C#N)c(N4CCN(c5ccccc5)CC4)o3)o2)cc1 -6.74%
Cc1cc(-c2ccc(C)c(S(=O)(=O)Nc3cccc(C)n3)c2)on1 -21.6%
Cc1ccc2c(c1)N(C(=O)N1CCC(C(=O)NCc3cccc(Br)c3)CC1)CCO2 -26.6%
O=C(CSc1oc(-c2ccccc2)nc1S(=O)(=O)c1ccc(Br)cc1)c1ccccc1 -10.9%
C[N+](C)(C)CCCCCCCCCC[N+](C)(C)C -2.2%
COc1ccc(C)cc1NC(=O)COc1cc(=O)n(C)c2ccccc12 1.71%
COc1ccc(NC(=O)c2ccco2)cc1NC(=O)COc1cccc(C)c1C -22.3%
CCc1ccc(NC(=O)CN(C)S(=O)(=O)c2ccc3c(c2)c(=O)n(C)c(=O)n3C)cc1 -4.65%
